Reference: PubChem BioAssay (NCATS)
The inconclusive results got no clear call from the source; some entries with a clear call stand among them for comparison. For some of these results: Potencies of inconclusive entries are left out as doubtful fits. The source made the active and inactive calls. The call rests on the fitted dose curve; in most records, active means well fitted curve in the direction sought with a large enough effect; inconclusive means small, poorly fitted or top-dose-only effect, or another doubt; inactive means no such curve, though single readings can be large; an effect the other way counts as inactive or inconclusive.

How the values were obtained:
[1] = molecular target: ATPase family AAA domain-containing protein 5 (Homo sapiens) (UniProt Q96QE3); test: HTS assay for small molecules that inhibit ELG1-dependent DNA repair in human embryonic kidney (HEK293T) cells expressing luciferase-tagged ELG1: Hit Confirmation (AID 624248); conditions: HEK293T ELG1-luciferase levels, luminescence, cells co-treated with 5-fluorouridine; series mostly up to 46.1 µM; further: nearly all actives have a fitted effect of over 55% in size
UniProt Q96QE3, sequence (Q96QE3 whole entry, looked up, the tested form may be a part): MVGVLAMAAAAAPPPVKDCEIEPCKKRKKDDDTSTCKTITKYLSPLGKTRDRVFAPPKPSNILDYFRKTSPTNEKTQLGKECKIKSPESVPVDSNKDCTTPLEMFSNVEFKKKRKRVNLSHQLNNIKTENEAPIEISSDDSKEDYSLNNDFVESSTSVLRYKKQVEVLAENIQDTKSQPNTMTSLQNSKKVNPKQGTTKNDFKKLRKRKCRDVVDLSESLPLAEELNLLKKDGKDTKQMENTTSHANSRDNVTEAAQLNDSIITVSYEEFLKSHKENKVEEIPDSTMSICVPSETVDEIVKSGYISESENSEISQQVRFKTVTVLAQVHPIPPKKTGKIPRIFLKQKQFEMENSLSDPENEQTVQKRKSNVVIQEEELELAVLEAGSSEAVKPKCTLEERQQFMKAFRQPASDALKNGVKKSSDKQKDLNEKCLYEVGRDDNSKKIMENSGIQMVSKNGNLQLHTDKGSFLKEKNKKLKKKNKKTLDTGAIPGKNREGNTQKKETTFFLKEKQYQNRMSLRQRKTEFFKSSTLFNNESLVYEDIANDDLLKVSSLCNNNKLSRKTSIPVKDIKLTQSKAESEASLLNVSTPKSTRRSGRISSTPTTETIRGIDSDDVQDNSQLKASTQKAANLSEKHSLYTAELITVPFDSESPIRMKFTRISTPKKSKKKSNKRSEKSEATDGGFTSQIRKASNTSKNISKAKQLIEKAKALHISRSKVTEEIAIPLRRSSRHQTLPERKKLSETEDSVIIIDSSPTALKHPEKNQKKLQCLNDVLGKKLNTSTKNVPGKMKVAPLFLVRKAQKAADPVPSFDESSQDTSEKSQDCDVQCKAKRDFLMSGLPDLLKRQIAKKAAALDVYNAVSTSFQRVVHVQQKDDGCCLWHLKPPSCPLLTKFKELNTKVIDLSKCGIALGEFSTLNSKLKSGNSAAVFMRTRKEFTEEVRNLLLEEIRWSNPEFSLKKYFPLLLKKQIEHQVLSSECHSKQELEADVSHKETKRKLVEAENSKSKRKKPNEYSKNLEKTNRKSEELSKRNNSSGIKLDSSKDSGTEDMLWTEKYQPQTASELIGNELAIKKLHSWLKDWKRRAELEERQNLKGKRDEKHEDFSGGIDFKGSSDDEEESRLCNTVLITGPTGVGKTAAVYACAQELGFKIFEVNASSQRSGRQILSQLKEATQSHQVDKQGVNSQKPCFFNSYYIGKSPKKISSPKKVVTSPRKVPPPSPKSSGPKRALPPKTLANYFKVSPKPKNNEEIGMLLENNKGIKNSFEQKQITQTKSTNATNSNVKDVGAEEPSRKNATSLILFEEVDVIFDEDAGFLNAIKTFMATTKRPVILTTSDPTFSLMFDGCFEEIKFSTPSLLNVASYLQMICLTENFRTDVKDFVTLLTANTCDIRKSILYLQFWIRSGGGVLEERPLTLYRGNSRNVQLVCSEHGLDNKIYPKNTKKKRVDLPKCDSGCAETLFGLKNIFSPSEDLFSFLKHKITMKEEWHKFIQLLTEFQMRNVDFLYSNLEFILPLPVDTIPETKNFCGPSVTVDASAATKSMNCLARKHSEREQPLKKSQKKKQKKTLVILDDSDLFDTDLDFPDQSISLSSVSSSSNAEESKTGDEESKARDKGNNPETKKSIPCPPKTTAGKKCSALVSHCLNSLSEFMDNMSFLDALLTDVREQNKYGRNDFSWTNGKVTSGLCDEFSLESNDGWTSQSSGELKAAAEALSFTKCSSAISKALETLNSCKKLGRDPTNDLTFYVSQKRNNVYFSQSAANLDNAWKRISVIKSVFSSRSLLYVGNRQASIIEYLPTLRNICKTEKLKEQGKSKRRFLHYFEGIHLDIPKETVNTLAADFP
Procedure, shortened: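 Suppression of ELG1-luciferase signal was read by ONE-Glo luminescence in HEK293T reporter cells after 16 h at 37 C co-treatment with compound and 5-fluorouridine as DNA-damaging agent.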

[2] = molecular target: ATPase family AAA domain-containing protein 5 (Homo sapiens) (UniProt Q96QE3); test: qHTS screen for small molecules that inhibit ELG1-dependent DNA repair in human embryonic kidney (HEK293T) cells expressing luciferase-tagged ELG1: Hit Confirmation using MMS Stimulated ELG1 (AID 624249); conditions: HEK293T luciferase-tagged ELG1 level; series mostly up to 46.1 µM; further: nearly all actives have a fitted effect of over 60% in size
Procedure, shortened: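 Hit confirmation in an ELG1-luc HEK293T line: about five hours after plating, wells got compound plus MMS at a final 10 µM. A 16 h incubation preceded Amplight-based luciferase measurement.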

[3] = qHTS screen for small molecules that inhibit ELG1-dependent DNA repair: Hit Confirmation with MMS Viability (AID 624251); conditions: Cell viability with MMS; series mostly up to 46.1 µM; further: nearly all actives have a fitted effect of over 60% in size
Procedure, shortened: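 Viability by CellTiter-Glo 16 h after compound addition to ELG1-luciferase HEK293T cells co-treated with 10 µM final MMS; cells seeded at 2,000/well and dosed roughly 5 h post-plating.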

[4] = qHTS screen for small molecules that inhibit ELG1-dependent DNA repair: Hit Confirmation with 5FU Viability (AID 624250); conditions: cell viability with 5-FU; series mostly up to 46.1 µM
Procedure, shortened: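 HEK293T ELG1-luc cells seeded, dosed ~5 h later (compound; 5-FUrd 10 µM final), incubated 16 h. Read: CellTiter-Glo viability.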

[5] = molecular target: Luciferin 4-monooxygenase (Photinus pyralis) (UniProt P08659); test: qHTS screen for small molecules that inhibit ELG1-dependent DNA repair: Hit Confirmation in Biochemical Luciferin Assay (AID 624253); conditions: purified firefly luciferase, luminescence counter-screen; series mostly up to 57.5 µM
Procedure, shortened: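 Luminescence from purified firefly luciferase acting on its substrate reagent, with compounds pinned in before the enzyme, read by CCD imager; flags direct luciferase inhibitors.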

[6] = qHTS for Inhibitors of WRN Helicase: Thiazole Orange DNA Binding Counterscreen (AID 720499); conditions: thiazole orange DNA binding displacement, fluorescence; series mostly up to 57.1 µM;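 further: drop in dye fluorescence marks compound binding to DNA; nearly all actives have a fitted effect of over 60% in size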
Procedure, shortened: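 Fluorescent ThO–DNA complex (100 nM dye, 50 nM unlabeled DNA) exposed to test compounds for 15 min at room temperature; emission at 530 nm after 480 nm excitation reports dye displacement.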

[7] = molecular target: DNA polymerase eta (Homo sapiens) (UniProt Q9Y253); test: qHTS for Inhibitors of Polymerase Eta: Confirmatory Assay for Cherry-picked Compounds (AID 720502); conditions: Pol eta primer extension, TAMRA/BHQ fluorescence, 10 min
UniProt Q9Y253, sequence (Q9Y253 whole entry, looked up): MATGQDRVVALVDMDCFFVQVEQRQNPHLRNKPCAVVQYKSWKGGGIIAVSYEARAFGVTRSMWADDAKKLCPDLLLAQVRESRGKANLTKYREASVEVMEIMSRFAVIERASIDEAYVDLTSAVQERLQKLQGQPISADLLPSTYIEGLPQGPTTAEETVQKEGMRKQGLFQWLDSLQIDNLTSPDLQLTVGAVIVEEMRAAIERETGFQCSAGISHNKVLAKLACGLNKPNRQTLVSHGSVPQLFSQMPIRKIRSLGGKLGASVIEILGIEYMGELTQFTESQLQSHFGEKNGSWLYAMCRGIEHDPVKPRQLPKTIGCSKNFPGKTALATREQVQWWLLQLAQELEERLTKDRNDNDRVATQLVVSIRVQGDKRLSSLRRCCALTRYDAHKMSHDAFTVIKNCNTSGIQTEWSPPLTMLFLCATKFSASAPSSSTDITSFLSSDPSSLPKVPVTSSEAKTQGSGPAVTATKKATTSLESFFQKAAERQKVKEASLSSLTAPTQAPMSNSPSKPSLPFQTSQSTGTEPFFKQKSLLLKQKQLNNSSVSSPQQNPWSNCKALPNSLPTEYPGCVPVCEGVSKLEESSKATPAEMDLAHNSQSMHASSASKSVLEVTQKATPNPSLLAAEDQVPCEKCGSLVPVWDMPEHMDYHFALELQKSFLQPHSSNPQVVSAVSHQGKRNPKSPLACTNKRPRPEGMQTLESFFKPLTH
Procedure, shortened: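 10 nM Pol eta + cpd, 15 min RT; start w/ 50 nM final primer/TAMRA-reporter/BHQ-2-template substrate; kinetic read 0 and 10 min, ex 525/em 598 nm. Buffer-only wells = negative control.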
Potency means the concentration at half of the fitted maximal effect; tags describe the fitted curve by direction and shape.

O=C(C1=C[C@H](c2ccc3c(c2)OCO3)C[C@H](OCCCCO)O1)N1CCN(Cc2ccccc2)CC1
Potency [1]: inactive | Potency [2]: inconclusive [inhibitor, single point] | Potency [3]: inconclusive [cytotoxic, single point]

C=CC[C@@H](CC(=O)N[C@H](CO)Cc1ccccc1)C(=O)NC[C@H](OC(=O)[C@@H](CC=C)Cc1ccc(F)cc1)c1ccccc1
Potency [1]: inconclusive [inhibitor, full curve] | Potency [2]: active: 9.96 µM | Potency [3]: inactive

Cc1ccc(CNC(=O)c2ccc(N3CCC4(CC3)CC(c3ccccc3)=NO4)c(NC(=O)c3ccco3)c2)cc1
Potency [1]: inconclusive [inhibitor, full curve] | Potency [2]: inconclusive [inhibitor, full curve] | Potency [4]: inconclusive [rising, full curve, poor fit] | Potency [3]: inconclusive [rising, full curve]

O=C(Nc1nnc(-c2ccccc2Cl)o1)c1ccc(S(=O)(=O)N2CCCCCC2)cc1
Potency [1]: inconclusive [inhibitor, partial curve] | Potency [2]: inconclusive [inhibitor, partial curve] | Potency [4]: inactive | Potency [3]: inactive

Cn1cc(C(=O)N/N=C/c2c(O)ccc3ccccc23)ccc1=O
Potency [1]: inconclusive [inhibitor, full curve] | Potency [2]: active: 3.15 µM | Potency [4]: inactive | Potency [3]: active: 14.1 µM

Cc1ccc(S(=O)(=O)N2CCCCC2)cc1NC(=O)CNc1ccc(C(F)(F)F)cc1
Potency [1]: inconclusive [inhibitor, partial curve, poor fit] | Potency [4]: inactive

COc1ccc(-c2cc(C(F)F)n3ncc(C(=O)Nc4cccc(S(=O)(=O)N5CCOCC5)c4)c3n2)cc1
Potency [1]: inconclusive [inhibitor, full curve] | Potency [4]: inactive

Cc1ccc(-c2c[n+](Cc3ccc(Cl)cc3)c3n2CCC3)cc1
Potency [1]: inconclusive [inhibitor, partial curve] | Potency [4]: inactive

COc1ccccc1C(=O)COC(=O)c1ccccc1OCC(=O)Nc1ccc(SC(F)F)cc1
Potency [1]: active: 7.05 µM | Potency [2]: inconclusive [inhibitor, partial curve] | Potency [4]: inconclusive [rising, partial curve, poor fit]

CCn1c(N2CCN(CC(=O)c3c[nH]c4ccccc34)CC2)nc2c1c(=O)[nH]c(=O)n2C
Potency [1]: inconclusive [inhibitor, partial curve] | Potency [2]: inactive | Potency [4]: inconclusive [rising, partial curve, poor fit]

COc1cc(C(=O)OCCc2cc3ccccc3c(=O)o2)cc(OC)c1OC
Potency [1]: active: 4.45 µM | Potency [2]: inconclusive [inhibitor, partial curve] | Potency [4]: inconclusive [rising, partial curve, poor fit] | Potency [3]: inconclusive [cytotoxic, partial curve]

Cc1ccc(-c2nc3c(c(SCC(=O)Nc4cccc(C(=O)O)c4)n2)Cc2cccc(C)c2O3)cc1
Potency [1]: inactive | Potency [2]: inactive | Potency [4]: inactive | Potency [3]: inconclusive [rising, partial curve] | Potency [5]: inconclusive [inhibitor, full curve] | Potency [6]: active: 2.71 µM | Potency [7]: active: 84.9 µM

O=C(Nc1ccc(F)cc1)C1CCC(CNc2c(N3CCCCC3)c(=O)c2=O)CC1 (stereo not given)
Potency [1]: inconclusive [inhibitor, partial curve] | Potency [2]: inactive | Potency [4]: inactive | Potency [3]: inactive

OCCN1CCN(c2ncnc3ccc(Br)cc23)CC1
Potency [1]: inconclusive [inhibitor, full curve] | Potency [4]: inactive

CC1(C)Cc2nc3nc(SCC(=O)NCCc4ccccc4)n(-c4ccccc4)c(=O)c3cc2CO1
Potency [1]: inconclusive [inhibitor, partial curve] | Potency [2]: inactive | Potency [4]: inconclusive [rising, full curve, poor fit] | Potency [3]: inactive

Cc1ccc(NC(=O)Cn2cnc3ccccc32)cc1C
Potency [1]: inactive | Potency [2]: inconclusive [inhibitor, single point] | Potency [3]: inconclusive [cytotoxic, partial curve]

CC(=O)c1cccc(NC(=O)COc2cc3oc(=O)c(CC(C)O)c(C)c3cc2Cl)c1 (stereo not given)
Potency [1]: active: 6.28 µM | Potency [4]: inconclusive [rising, full curve]

CSc1sc(-c2ccnc(SCCS(C)(=O)=O)n2)c(-c2ccccc2)c1C#N
Potency [1]: active: 3.15 µM | Potency [4]: inactive

COc1ccc(C(=O)N2CCc3cc(OC)c(OC)cc3C2c2ccc(OC)c(OC)c2)cc1OC (stereo not given)
Potency [1]: inconclusive [inhibitor, partial curve] | Potency [4]: inconclusive [rising, partial curve, poor fit]

CC(=O)c1cn(CC(=O)Nc2ccc(C)c(C)c2)c2ccccc12
Potency [1]: inactive | Potency [2]: inconclusive [inhibitor, full curve, poor fit] | Potency [4]: inactive | Potency [3]: inconclusive [cytotoxic, single point]

CCCCNC(=O)CCc1c(C)nc2nc(-c3cc(OC)cc(OC)c3)nn2c1C
Potency [1]: inconclusive [inhibitor, partial curve] | Potency [2]: inactive | Potency [4]: inconclusive [rising, full curve] | Potency [3]: inconclusive [rising, full curve]

C/C(=N\NC(=O)c1c(C)nc2ccccn12)c1ccc(O)cc1O
Potency [1]: inconclusive [inhibitor, partial curve] | Potency [2]: inconclusive [inhibitor, full curve] | Potency [4]: inactive | Potency [3]: inconclusive [cytotoxic, partial curve, poor fit]

CCCN1CCN(C(=O)C2CCN(c3ncnc4c3nc3n4CCCCC3)CC2)CC1
Potency [1]: inactive | Potency [2]: inconclusive [inhibitor, single point] | Potency [3]: inconclusive [cytotoxic, partial curve, poor fit]

COC(=O)c1ccc(NC(=O)c2ccc(N(C)S(C)(=O)=O)cc2)cc1
Potency [1]: inactive | Potency [4]: inactive

CCOc1ccc(-n2cc(C(=O)Nc3cccc(OC)c3)c3cc(OC)c(OC)cc3c2=O)cc1
Potency [1]: active: 11.2 µM | Potency [4]: inconclusive [rising, partial curve, poor fit]

CCC(C)[C@H]1CNCCN1CCc1cc(C(F)(F)F)cc(C(F)(F)F)c1 (stereo not given in full)
Potency [1]: inactive | Potency [4]: inconclusive [cytotoxic, partial curve, poor fit]

O=C(Nc1nc(-c2ccc3c(c2)OCCO3)cs1)c1ccc(S(=O)(=O)N2CCCCC2)cc1
Potency [1]: inconclusive [inhibitor, full curve] | Potency [4]: inactive

CC1(C)Cc2c(C#N)c(SCc3ccccc3)nc(N3CCOCC3)c2CO1
Potency [1]: active: 2.23 µM | Potency [4]: inconclusive [rising, full curve]

CCOC(=O)c1c(C)[nH]c(C(=O)Nc2cc(OCC)c(N3CCOCC3)cc2OCC)c1C
Potency [1]: active: 5.6 µM | Potency [4]: inconclusive [rising, partial curve, poor fit]

Cc1cc(NC(=O)Cc2ccccc2)c2ccccc2n1
Potency [1]: inconclusive [inhibitor, partial curve] | Potency [4]: inactive

CCCOC(=O)c1ccc(OCC(O)Cn2c(C)nc3ccccc32)cc1 (stereo not given)
Potency [1]: inconclusive [inhibitor, partial curve] | Potency [4]: inactive

Cc1cc(C(=O)NNc2ccc(F)cc2)no1
Potency [1]: inactive | Potency [4]: inactive

Cc1nc(N2CCN(S(=O)(=O)c3ccc(F)cc3)CC2)c2c(C)c(C)sc2n1
Potency [1]: inactive | Potency [4]: inactive

O=Cc1cn(CC(=O)Nc2ccc(F)cc2)c2ccccc12
Potency [1]: inactive | Potency [4]: inactive

Cc1c(C(C)C)c(=O)n(-c2ccc(S(=O)(=O)NC3CCCCC3)cc2)n1C
Potency [1]: inconclusive [inhibitor, partial curve] | Potency [4]: inactive

N#C/C(=C(/O)c1ccc([N+](=O)[O-])s1)c1nc2ccccc2[nH]1
Potency [1]: inconclusive [inhibitor, full curve] | Potency [4]: inactive

NC(=O)c1ccc(N2CCN(S(=O)(=O)c3ccccc3)CC2)c([N+](=O)[O-])c1
Potency [1]: inconclusive [inhibitor, partial curve] | Potency [4]: inactive

c1ccc(Cn2nnnc2C(c2cccnc2)N2CCN(C3CCCCC3)CC2)cc1 (stereo not given)
Potency [1]: inconclusive [inhibitor, partial curve] | Potency [4]: inactive

COc1ccc(-c2cc(C(F)F)n3ncc(C(=O)Nc4ccc(C(=O)N5CCOCC5)cc4)c3n2)cc1
Potency [1]: active: 2.81 µM | Potency [4]: inconclusive [rising, full curve]

CCOCCCNC(=O)C1CCN(c2cc(C)nc3c(-c4ccc(OC)c(OC)c4)c(C)nn23)CC1
Potency [1]: inconclusive [inhibitor, full curve] | Potency [4]: inconclusive [rising, full curve, poor fit]

COc1ccc(-c2noc(CCCC(=O)NC3CCCC3)n2)cc1
Potency [1]: inconclusive [inhibitor, partial curve, poor fit] | Potency [4]: inactive

COc1ccc2cc3c(N)nn(C(=O)c4ccc(F)cc4)c3nc2c1
Potency [1]: active: 2.5 µM | Potency [4]: inactive

O=C(COc1ccc(C(=O)c2ccccc2)cc1)Nc1cccnc1
Potency [1]: inconclusive [inhibitor, partial curve] | Potency [4]: inactive
